# Measurements published in the supplement of paper PMC9135407.
# Where “and” joins values, the source holds several entries; their conditions need not be identical. Equal entries are not always repeated. Structures can show the parent of a compound that is named as a salt. Hit rate of the full screen: of about 5,800 compounds, about 620 (11%) showed activity.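 Rule for the calls: active = score above a cut-off or among the top three wells of a plate; in these data no inactive exceeds 0.85.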 The list shows a part of the results, in another mix than the full data.
# Test system: primary human hepatic stellate cells (donor 1)
# Test: scaled lipid accumulation score (0 = DMSO-like, 1 = nortriptyline-like); higher = stronger HSC inactivation (lipid re-accumulation), active = hit call of the paper
# Settings: 48 h
# Experimental: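 Primary lipid accumulation screen in primary human hepatic stellate cell myofibroblasts (donor 1, passage 8) in 384-well plates. 100 nL of library compound was pin-transferred into 30 µL medium in duplicate, and cells were treated for 48 h. The 'Scaled' score combines distance from plate baseline, toxicity and reproducibility penalties, and is normalised to nortriptyline (positive) and DMSO (negative) controls on each plate. A hit is defined as scaled >0.85 or among the top 3 wells per plate.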
# [1] = library stock concentration: 10 mM
# [2] = library stock concentration: 1 mM
# [3] = library stock concentration: 2 mM
# [4] = library stock concentration: 3.33 mM
# [5] = library stock concentration: 4.8 mM
structure (smiles),measurement,setting,value
CNCc1ccc(-c2[nH]c3cc(F)cc4c3c2CCNC4=O)cc1.O=P(O)(O)O [Rucaparib],scaled lipid accumulation score,[1],active: 1.12
S=C1SCN(Cc2ccccc2)CN1Cc1ccccc1,scaled lipid accumulation score,[1],inactive: ≤ 0
"CCCCCCCCC=CCC=CCC=CCCCC(=O)O [5(Z),8(Z),11(Z)-Eicosatrienoic Acid]",scaled lipid accumulation score,[2],inactive: 0.072
COc1cc2ncnc(Nc3ccc(F)c(Cl)c3)c2cc1NC(=O)C=CCN1CCCCC1,scaled lipid accumulation score,[3],active: 0.903
same,scaled lipid accumulation score,[1],active: 1.47
NCC(=O)Nc1ccc(-n2nc(C(F)(F)F)cc2-c2ccc3c(ccc4ccccc43)c2)cc1,scaled lipid accumulation score,[4],inactive: 0.577
same,scaled lipid accumulation score,[1],inactive: ≤ 0
COc1ccc(-c2nc3cc(C4=NNC(=O)CC4C)ccc3[nH]2)cc1 (stereo not given) [Pimobendan],scaled lipid accumulation score,[4],inactive: ≤ 0
same,scaled lipid accumulation score,[1],inactive: 0.097
NS(=O)(=O)c1cc2c(cc1Cl)N=CNS2(=O)=O [Chlorothiazide],scaled lipid accumulation score,,inactive: ≤ 0
same,scaled lipid accumulation score,[4],inactive: ≤ 0
same,scaled lipid accumulation score,library stock concentration: 6.8 mM,inactive: ≤ -0.001
same,scaled lipid accumulation score,[1],inactive: ≤ 0 and inactive: 0.054 and inactive: 0.009
COc1ccc(-c2cnc3c(-c4cccc5ncccc45)cnn3c2)cc1,scaled lipid accumulation score,[4],inactive: 0.037
same,scaled lipid accumulation score,[1],inactive: 0.367
CCCCCCCCCCCCCCCCCCCCCCC(=O)OCC [Ethyl Tricosanoate],scaled lipid accumulation score,[2],inactive: ≤ 0
CN[C@H](CC(C)C)C(=O)N[C@H]1C(=O)N[C@@H](CC(N)=O)C(=O)N[C@H]2C(=O)N[C@H]3C(=O)N[C@H](C(=O)N[C@H](C(=O)O)c4cc(O)cc(O)c4-c4cc3ccc4O)[C@H](O)c3ccc(c(Cl)c3)Oc3cc2cc(c3O[C@@H]2O[C@H](CO)[C@@H](O)[C@H](O)[C@H]2O[C@H]2C[C@](C)(N)[C@H](O)[C@H](C)O2)Oc2ccc(cc2Cl)[C@H]1O [Vancomycin hydrochloride from Streptomyces orientalis],scaled lipid accumulation score,[1],inactive: ≤ 0
CN[C@H](CC(C)C)C(=O)N[C@H]1C(=O)N[C@@H](CC(N)=O)C(=O)N[C@H]2C(=O)N[C@H]3C(=O)N[C@H](C(=O)N[C@H](C(=O)O)c4cc(O)cc(O)c4-c4cc3ccc4O)[C@H](O)c3ccc(c(Cl)c3)Oc3cc2cc(c3O[C@@H]2O[C@H](CO)[C@@H](O)[C@H](O)[C@H]2O[C@H]2C[C@](C)(N)[C@H](O)[C@H](C)O2)Oc2ccc(cc2Cl)[C@H]1O [Vancomycin hydrochloride],scaled lipid accumulation score,,inactive: 0.108
same,scaled lipid accumulation score,[1],inactive: ≤ 0
CNS(=O)(=O)Cc1ccc2[nH]cc(CCN(C)C)c2c1 [Sumatriptan Succinate],scaled lipid accumulation score,[5],inactive: 0.037
CNS(=O)(=O)Cc1ccc2[nH]cc(CCN(C)C)c2c1,scaled lipid accumulation score,[1],inactive: ≤ 0
CNS(=O)(=O)Cc1ccc2[nH]cc(CCN(C)C)c2c1 [Sumatriptan succinate],scaled lipid accumulation score,[1],inactive: 0.062
COc1cc2ncnc(Oc3cccc(NC(=O)Nc4cc(C(C)(C)C(F)(F)F)on4)c3)c2cc1OC,scaled lipid accumulation score,[4],inactive: ≤ -0.009
same,scaled lipid accumulation score,[1],inactive: ≤ 0
O=c1c(O)c(-c2ccc(O)c(O)c2)oc2cc(O)ccc12 [Fisetin],scaled lipid accumulation score,[4],inactive: ≤ 0
same,scaled lipid accumulation score,[1],inactive: ≤ 0
CCC(CC)(CC(=O)Nc1cccc(/C=C/c2nc(C3CCC3)cs2)c1)C(=O)O [Cinalukast],scaled lipid accumulation score,[1],inactive: 0.005
NC(=O)c1ncn([C@@H]2O[C@H](CO)[C@@H](O)[C@H]2O)n1 [Ribavirin],scaled lipid accumulation score,,inactive: ≤ 0
same,scaled lipid accumulation score,[4],inactive: ≤ 0
same,scaled lipid accumulation score,[1],inactive: ≤ 0 and inactive: 0.162
CCCCCCCCCCCCCCCCNc1ccc(C(=O)O)cc1 [Cetaben],scaled lipid accumulation score,[2],inactive: 0.024
CCOC(=O)[C@H](CCc1ccccc1)N[C@@H](C)C(=O)N1[C@H](C(=O)O)C[C@@H]2CCC[C@@H]21 [Ramipril],scaled lipid accumulation score,,inactive: ≤ 0
same,scaled lipid accumulation score,[4],inactive: 0.1
same,scaled lipid accumulation score,[5],inactive: ≤ 0
same,scaled lipid accumulation score,[1],inactive: ≤ 0
CCOC(=O)[C@H](CCc1ccccc1)N[C@@H](C)C(=O)N1[C@H](C(=O)O)C[C@@H]2CCC[C@@H]21,scaled lipid accumulation score,[1],inactive: ≤ 0
CCOc1ccc2c(c1)C(C)=CC(C)(C)N2 [Ethoxyquin],scaled lipid accumulation score,,inactive: ≤ 0
same,scaled lipid accumulation score,[1],inactive: ≤ 0
Cc1ccc(S(=O)(=O)n2c(N)nc3ccccc32)cc1 [ML130 (Nodinitib-1)],scaled lipid accumulation score,[4],inactive: 0.011
same,scaled lipid accumulation score,[1],inactive: 0.086
"Cn1c(=O)c2[nH]c(C3CCCC3)nc2n(C)c1=O [8-Cyclopentyl-1,3-dimethylxanthine]",scaled lipid accumulation score,[1],inactive: 0.066
C=NC(C(=O)NC1C(=O)N2C1SC(C)(C)C2C(=O)O)c1ccccc1 (stereo not given) [Metampicillin sodium],scaled lipid accumulation score,[1],inactive: ≤ 0
CC(C)COCC(CN(Cc1ccccc1)c1ccccc1)N1CCCC1 (stereo not given) [Bepridil hydrochloride],scaled lipid accumulation score,,inactive: 0.677
same,scaled lipid accumulation score,library stock concentration: 5 mM,inactive: 0.569
same,scaled lipid accumulation score,[1],inactive: 0.175 and inactive: 0.195
O=C(Nc1ccc(C(=O)O)c(O)c1)c1ccccc1 [Benzoylpas],scaled lipid accumulation score,library stock concentration: 7.8 mM,inactive: ≤ 0
CCCCOC(=O)c1ccc(N)cc1 [Butamben],scaled lipid accumulation score,,inactive: ≤ 0
same,scaled lipid accumulation score,[1],inactive: ≤ 0
CS(=O)(=O)CCNCc1ccc(-c2ccc3ncnc(Nc4ccc(OCc5cccc(F)c5)c(Cl)c4)c3c2)o1,scaled lipid accumulation score,[3],active: 1.7
OC1C[C@@H]2[C@@H](CC[C@@H](O)CCc3ccccc3)[C@H](O)C[C@@H]2O1 (stereo not given in full) [Latanoprost Lactol],scaled lipid accumulation score,[2],inactive: 0.027
O=[N+]([O-])c1ccc2c(c1)S(=O)(=O)C=C2 [Stattic],scaled lipid accumulation score,[1],inactive: 0.347
Nc1ccc(-c2ccc3ccccc3n2)cc1 [BF-170 hydrochloride],scaled lipid accumulation score,[1],inactive: 0.028
CC[C@H]1OC(=O)[C@H](C)[C@@H](O[C@H]2C[C@@](C)(OC)[C@@H](O)[C@H](C)O2)[C@H](C)[C@@H](O[C@@H]2O[C@H](C)C[C@H](N(C)C)[C@H]2O)[C@](C)(OC)C[C@@H](C)C(=O)[C@H](C)[C@@H](O)[C@]1(C)O [Clarithromycin],scaled lipid accumulation score,[4],inactive: ≤ 0
same,scaled lipid accumulation score,[1],inactive: ≤ 0 and inactive: ≤ -0.012
CC[C@H]1OC(=O)[C@H](C)[C@@H](O[C@H]2C[C@@](C)(OC)[C@@H](O)[C@H](C)O2)[C@H](C)[C@@H](O[C@@H]2O[C@H](C)C[C@H](N(C)C)[C@H]2O)[C@](C)(OC)C[C@@H](C)C(=O)[C@H](C)[C@@H](O)[C@]1(C)O,scaled lipid accumulation score,[1],inactive: 0.152
